# Among all 150,000 compounds or so, about 540 (0.36%) showed an effect of 50% or more. Some of the results follow.
# Tested on: Plasmodium falciparum
# Assay: Primary screen in NF54 nanoGlo assay, in single point, at 2uM, 72h; a lower Z score goes with more inhibition
# Assay type: functional, Erythrocyte
# Settings: timepoint 72 hour
Compound,% Inhibition [%],Z score
COCCCN1CC(=O)N[C@@H]2CN(C(=O)CCc3cccnc3)CC[C@@H]2OCc2cccc(c2)Oc2cc(ccc2OC)C1,39,-5.44
CCOC(=O)C(=O)c1cn(C2OCC(OC(C)=O)C(OC(C)=O)C2OC(C)=O)c2ccccc12 (stereo not drawn),-15,2.03
O=C(NC1CCCCC1)c1ccc2c(c1)NC(=O)[C@@H]1CCCCN21,3,-0.58
Cn1c(-c2ccc(-c3ccccc3)cc2)cn2cc(-c3ccc(F)cc3)nc12,-38,4.43
COc1cc(NC(=O)[C@@H](Cc2ccccc2)n2c(=O)[nH]c3ccccc3c2=O)cc(OC)c1,-13,1.64
O=C(c1ccco1)N1CCN(C(=O)c2ccc(CS(=O)(=O)c3ccc(Br)cc3)o2)CC1,-4,0.65
CCN(Cc1ccncc1)C1CN(Cc2cccc(F)c2)C1,5,-0.87
CC(C)N(C)c1nc(N2CCCCC2)nc2c1CN(C(=O)c1cccc(F)c1)CC2,-25,2.7
COc1ccc(S(=O)(=O)N2CCOC[C@H](OC)C2)cc1,-8,1.06
C#CCn1ccc(O)c(Cc2ccccc2)c1=O,47,-6.02
COC(=O)C(NC1CCc2nc(C)nn2C1)c1ccccc1C (stereo not drawn),2,-0.3
CC(C)N(Cc1ccccc1)C(=O)CN1CCC[C@H]1c1ccc2c(c1)OCCCO2,2,-0.32
Cn1cc(-c2nc(C(=O)NCc3ccccc3F)cs2)c2cccnc21,-16,2.78
C#Cc1cccc(N=C(NCCS(=O)(=O)CC)Nc2ccn[nH]2)c1,-7,0.95
Cc1cc(C)nc(O[C@H]2CCCN(C(=O)C(C)(C)Oc3ccc(Cl)cc3)C2)n1,3,-0.46
CCc1nc(C)sc1CNc1nc(-c2cccnc2)nc2c1cnn2C,-5,0.68
CC1CCC(OC2CCN(c3ccc4nnnn4n3)CC2)CC1 (stereo not drawn),-3,0.26
OCCn1ccc([C@H]2CCCN(Cc3cc4c(cc3Cl)OCO4)C2)n1,-8,0.97
OCc1ccc(CNCCCNc2ccccc2)o1,-9,1.25
Cc1c(S(=O)(=O)N2CCOCC2)c(C)n(C)c1C(=O)N1CCCC[C@@H]1C,3,-0.54
COc1ccc(OCC(=O)Nc2ccc3c(c2)NC(=O)[C@H](C)O3)cc1,-3,0.48

Compound,% Inhibition [%],Z score
COc1ccc(-c2c(C)nn3c2NC(=O)CCC3=O)cc1S(=O)(=O)N1CCCc2ccccc21,-11,1.36
COc1ccccc1N1CCN(C(=O)c2cc(-c3ccc(F)cc3)[nH]c2C)CC1,-2,0.3
CCC[C@@H](C(=O)NCC(=O)OCC)c1ccccn1,-37,4.33
C[C@H]1CCC(=O)N1c1ccc(NC(=O)c2cnc[nH]2)cc1,1,-0.2
CC(=O)N(C)c1cccc(NC(=O)N[C@@H](C)C2=CCCCC2)c1,-17,1.51
CCN(C[C@H]1CCOC1)C(=O)Cn1nnc2ccccc21,1,-0.11
CCn1c(-c2cc(NC(=O)Cc3ccc(F)cc3)[nH]n2)cc2ccc(OC)cc21,6,-1.06
CCC[C@@H](CCC(=O)Nc1ccc(OCC)cc1)C(=O)O,-8,0.89
CC1(C)CN(C(=O)CCc2ccco2)CC[S@+]1[O-],-6,1.22
Cc1cccc(NC(=O)C2CCN(S(=O)(=O)c3cc(C(=O)N4CCOCC4)cs3)CC2)c1C,-6,0.99
CC[C@@H](CC#N)NC(=O)c1[nH]cnc1C(C)(C)C,0,-0.03
Cc1c(F)cccc1NC(=O)N[C@H]1CCN(c2ccc(F)cc2)C1=O,-3,0.48
C[C@H]1CCCN(CCCNC(=O)C2CCN(c3ncnc4c3nc3n4CCCCC3)CC2)C1,-7,1.2
Cc1ccc(OC2CN(CC[C@H](O)c3ccccc3)C2)cc1,0,0.06
O=c1cc(O)c2ccccc2n1-c1ccccc1,3,-0.43
CCOc1ccccc1CNS(=O)(=O)c1cc(-c2cnn3c(C)cc(C)nc23)ccc1C,-11,1.05
CC1CCN(c2nc3c(c(Oc4cccc(F)c4)n2)CN(Cc2ccccn2)CC3)CC1,46,-2.5
Cc1nc(-c2c(-c3ccccc3)ncn2C[C@H]2COc3ccccc3O2)c[nH]1,-6,0.59
CCC1CCN(C(=O)c2cn3c(n2)C[C@@H](C)CC3)CC1,-11,1.27
CCn1cncc1CNC(=O)CCc1cn[nH]c1,11,-2.12
CCC[C@H](Nc1nc(C)nc2ncccc12)c1cccs1,-10,1.87

Compound,% Inhibition [%],Z score
O=S(=O)(N1CCCCC1)N(CCOc1ccccc1)C[C@H]1CCCO1,-13,1.97
CCN1C(=O)COc2cc(NC(=O)N[C@@H](C)c3ncnn3CC)ccc21,5,-1.01
CC(C)c1ocnc1C(=O)N1CCC(NC(=O)c2ccoc2)CC1,-1,0.11
O=C(NC[C@H]1COCCO1)c1ccccc1NC(=O)c1nsc2ccccc12,-3,0.51
COc1ccccc1NC(=O)C(=O)N1CCOCC1,2,-0.47
CCCn1cnnc1CNC1CCN(c2nc3ccccc3o2)CC1,-2,0.25
Cc1nn(C(C)C)cc1CN1CCCC2(CCCCO2)C1C#N (stereo not drawn),-7,0.81
O=C(CCc1ccc(S(=O)(=O)N2CCCCCC2)cc1)Nc1ccc(Br)cc1F,-14,1.2
COc1ccc(CCNC(=O)c2c(C)noc2-c2cccnc2)cc1OC,-13,2.17
COc1ccc(CN2CN=C(NS(C)(=O)=O)NC2)cc1OC,6,-0.73
Cc1ncsc1C(=O)OC1CCN(CC(F)(F)F)CC1,-7,1.05
CC(C)(NC(=O)c1ncoc1C1CC1)c1cccs1,2,-0.33
NC(=O)c1ccnc(N2CCC[C@]3(CCC(=O)N(C4CCCC4)C3)C2)c1,-7,1.32
O=C1CN(CCc2cccs2)CCN1c1cccs1,5,-0.75
Fc1cnccc1NCc1c[nH]nc1-c1cccnc1,-38,4.46
COc1ccc(CCC(=O)Nc2ccc(Cn3cnc(C(=O)Nc4cccc(Cl)c4)c3)cc2)cc1,-7,0.85
O=C(Cc1cccc(Br)c1)NCC1(O)CCC1,-9,1.19
c1cnn(-c2ccc(-c3cnc4ncnn4c3)cc2)c1,-10,0.96
COc1ccc(Cl)cc1N1C(=O)C2C(CC(N)=O)NC3(C(=O)Nc4ccccc43)C2C1=O (stereo not drawn),2,-0.21
CC(C)n1cnnc1CN1CC[C@](C)(O)[C@@H](O)C1,-10,1.49
CCCc1noc(CN(CC)Cc2ccncc2)n1,12,-1.57

Compound,% Inhibition [%],Z score
O=C(NC1CCCCC1)Oc1cc2oc(=O)sc2cc1Br,27,-3.06
Cc1cc(NC(=O)CC2CCC2)nc(=O)[nH]1,-5,0.65
COc1ccc2[nH]c3c(c2c1)CCN(C)C31CCN(C(=O)c2cn(C)cn2)CC1,-16,2.18
CC(C)OC[C@@H](O)CN(Cc1c(C(C)C)nn(-c2ccccc2)c1Oc1cccc(F)c1)C1CC1,-1,0.11
C=C(C)COc1ccccc1NC(=O)[C@@H]1CCCN1CC,-12,2.23
C[C@H]1CN(C(=O)NCc2nc3ccccc3s2)CCO1,-4,0.82
COC(=O)CCN(CC(C)C)C(=O)c1cccc(NC(C)=O)c1,10,-1.04
CCC1=NO[C@@H](CNC(=O)c2c[nH]nc2-c2ccccc2)C1,-8,1.17
Cc1cc(C)c(NC(=O)[C@@H]2CN(S(=O)(=O)c3ccccc3)c3cc(C(C)(C)C)ccc3O2)c(C)c1,-20,2.59
O=C(NCc1ccc(OCc2cccnc2)cc1)c1ccc(Br)cc1F,-3,0.47
O=C(Nc1ccc(N2CCCN(Cc3ccc(Cl)c(Cl)c3)C2=O)cc1)OCc1ccccc1,6,-1.2
Cc1ccc2c(c1)N(Cc1cccc(F)c1)N=C(C(=O)N1CCCCCC1)S2(=O)=O,-11,1.83
O=C1C(=O)N(C2CCCCC2)C(=O)N1Cc1cccc2ccccc12,-5,0.7
FC(F)c1csc(Cn2cccn2)n1,12,-1.08
O=C(Cc1n[nH]c(=O)c2ccccc12)Nc1ccncc1,-13,1.36
Cc1ncc(C(=O)N[C@@H](C)C2CCN(CC(F)(F)F)CC2)c(C2CC2)n1,2,-0.31
CNC(=O)c1c(C)n[nH]c1NCc1ccc(Cl)o1,-13,2
O=C1NCCC[C@H]1c1nc(-c2cccc(CN3CCCCC3)c2)no1,11,-1.49
OC1=Nc2c(ncn2-c2cccnc2)[C@@H](c2cccc(Cl)c2Cl)C1,11,-1.43
CCCn1nccc1S(=O)(=O)NCC1(CO)CCOCC1,4,-0.61
CCCN(C(=O)c1cnc(C2CC2)nc1)[C@H]1CCCc2cccnc21,-5,0.98
